About 540 (0.36%) of roughly 150,000 compounds showed an effect of 50% or more. This is one part of the list.
System: Plasmodium falciparum
Experiment: Primary screen in NF54 nanoGlo assay, in single point, at 2uM, 72h; a lower Z score goes with more inhibition
Format: functional, Erythrocyte
Settings: timepoint 72 hour

Structure (SMILES) | % Inhibition [%] | Z score
Cc1cc(C)n(Cc2c(C(=O)N[C@@H](C)CCc3ccccc3)noc2C)n1 | -7 | 0.69
CN1c2cc(F)c(NC(=O)C(C)(C)Oc3ccc(Cl)cc3)cc2N(C)S1(=O)=O | -13 | 1.66
CCn1nccc1C(=O)N1C2CCC1Cn1c(nnc1-c1ccccc1)C2 (stereo not given) | -12 | 1.62
O=C([C@@H]1COc2ccccc2O1)N1CC(n2ccnn2)C1 | -4 | 0.49
CN(C)CCCn1ccnc1C1CCN(C(=O)c2ccc3c(c2)CCO3)CC1 | -1 | 0.11
Cc1cc(Oc2ccc(NC(=O)NCc3sccc3C)cc2)n[nH]1 | -6 | 0.8
CNC(=O)c1ccc(N(C)S(=O)(=O)N(C)C)cc1 | -12 | 1.09
COc1ccccc1Cn1nnnc1N1CCC(CO)(OC)CC1 | 1 | -0.11
O=C1CC[C@@H]2CN(c3ncnc4[nH]cnc34)CC[C@@H]2N1CCCn1ccnc1 | -4 | 0.75
Cc1nn(Cc2nc(-c3c(F)cccc3F)cs2)c(N)c1C#N | 6 | -1.11
Cc1cccc(CNC(=O)[C@H]2CCC(=O)N(C3CCCCCC3)C2)n1 | -5 | 0.84
CCc1nc(CN2CC(N3CCCC[C@@H]3C)C2)n[nH]1 | 0 | 0.03
CC(C)(C)OC(=O)N1CCC2CN(C(=O)CC#N)CC2C1 (stereo not given) | -5 | 0.79
O=C(NCc1ccco1)c1c[nH]c(=O)n(Cc2ccccc2F)c1=O | 0 | 0.05
CCc1ccccc1S(=O)(=O)N1CCN(c2nc3ccncc3n(C(C)C)c2=O)CC1 | -9 | 0.92
O=C(Nc1cccs1)N1CC[C@H](Oc2cccc3cccnc23)C1 | -27 | 5.07
Cc1nn([C@H]2CCS(=O)(=O)C2)c(C)c1N1CCN(C(=O)CCn2cnc3ccccc3c2=O)CC1 | -17 | 3.01
CC(C)(C)CCS(=O)(=O)N1CC(n2ccnn2)C1 | -9 | 0.95
Cc1ccc(Cl)cc1NC(=O)c1sc(-n2nc(C)c(Cc3ccccc3)c2O)nc1C | -4 | 0.46
CCC(=O)N(CCCOC)Cc1c(-c2ccccc2)noc1N1CCOCC1 | 0 | 0.02
Cc1nc(C(C)C)ccc1CN(CCO)S(C)(=O)=O | -29 | 3.44
COc1ccc([C@@H](NCc2nnc(C)o2)C(F)(F)F)cc1 | -1 | 0.11

Structure (SMILES) | % Inhibition [%] | Z score
c1ccc(-c2ccnc(NCc3nnc4n3CCC4)n2)nc1 | -7 | 1.11
COc1ccc(NC(=O)N[C@@H](CC(C)C)c2nnc3ccccn23)cc1 | -15 | 1.85
Cn1nc(C(=O)Nc2ccc(F)cc2)c(=O)c2ccccc21 | -14 | 1.89
CCCN(C)Cc1nc2nc(C)cc(N(CC)CC)n2n1 | -13 | 1.73
CC1(C)C(=O)Nc2cc(C(=O)NC[C@@]3(CCO)CCOC3)ccc21 | 0 | 0.07
Cn1nccc1CCNC(=O)c1csc(C(F)(F)F)n1 | -7 | 0.71
CCNC(=O)NCCn1cc(-c2ccoc2)cn1 | -5 | 0.92
CC(C)(Cc1ccccc1)C(=O)Nc1ncccn1 | 3 | -0.49
Cc1nc(N2CCOCC2)ncc1C(=O)NCc1cccc(Cl)c1 | -16 | 2.53
C=CCNC(=O)N[C@H]1CCCC(F)(F)C1 | -3 | 0.5
COc1nc(N2CCN(CC3CC3)[C@@H](CCO)C2)ncc1F | -14 | 2
COc1cc(NC(C)=O)ccc1NCc1cnc(-c2ccco2)s1 | -11 | 1.43
N#Cc1ccc(S(=O)(=O)N2C[C@H](C(=O)NC3CCCCC3)C3(CCOCC3)C2)cc1 | 3 | -0.59
CN(C[C@H]1CCCCO1)C1CCN(c2cccc(N3CCCC3=O)c2)CC1 | -5 | 0.76
Cc1cc2[nH]cc(C(=O)NCc3ccc(N4CCC[C@H](C)C4)cc3)c(=O)n2n1 | 1 | -0.25
Cc1nonc1C(=O)N1CCC(c2nc3ccccc3o2)CC1 | -17 | 3.26
Cc1nn(C)c2nc(-c3cccs3)cc(C(=O)N[C@@H](C)c3ccn(C)n3)c12 | 27 | -3
NC(=O)C1(NC(=O)c2ccc3c(c2)OCO3)CCOCC1 | -9 | 1.5
CC(C)(C)n1ncc2c1NC(=O)C[C@]21C(=O)Nc2c(Cl)cccc21 | 22 | -2.5
Cc1cc(Cl)c2oc(C(=O)NCCc3ccco3)c(C)c2c1 | -20 | 2.92
C[C@@H]1CN(Cc2ccccc2)CCN1C(=O)C1CCC(CNC(=O)OC(C)(C)C)O1 (stereo not given in full) | 2 | -0.16
Cc1nsc(C(=O)NCCC(C)C)n1 | -11 | 1.7

Structure (SMILES) | % Inhibition [%] | Z score
CCn1nccc1CN(C)C(=O)[C@@](C)(O)C1CCOCC1 | 4 | -0.59
COCCN(CC(C)C)C(=O)C(C)C(NC(=O)OC(C)(C)C)c1ccccc1 (stereo not given) | 2 | -0.34
O=C(c1ccccc1NCc1ccn(C2CCCC2)n1)N1CCC[C@H](O)C1 | -12 | 1.77
Cc1c(NC(=O)c2nn(-c3ccc(Cl)cc3)ccc2=O)c(=O)n(-c2ccccc2)n1C | 3 | -0.52
CC(C)(C)[C@H]1CCc2c(sc(NC(=O)c3ccccc3F)c2C(=O)N2CCCC2)C1 | -2 | 0.47
Clc1ccc(NC2(c3noc(Cn4cccn4)n3)CCC2)cc1 | -1 | 0.13
CCCn1c(=O)c(C(=O)O)c(Nc2ccc(Cl)cc2)c2ccccc21 | -8 | 1.11
OCc1cc(CO)c(O)c(CCc2ccccc2)n1 | -7 | 1.32
Fc1cccc(-n2ncnc2[C@H]2CCCNCC2)c1 | -3 | 0.27
CCn1ccc(CN(C)C2Cc3ccccc3C2)n1 | -1 | 0.22
COCc1nnc(C(=O)N(C)Cc2cccnc2)o1 | 1 | -0.23
O=C(NCCc1ccc(OC(F)F)cc1)c1ccc(S(=O)(=O)N2CCCCCC2)cc1 | -17 | 2.69
O=C(Nc1nc(-c2ccccn2)cs1)c1cc(S(=O)(=O)N2CCCCC2)ccc1Cl | 2 | -0.32
CCN=C(NCC1CCCO1)NCC1CCOC1c1ccccc1 (stereo not given) | -2 | 0.3
CCCN(C(=O)Cn1ncc2c([nH]c3ccc(C)cc32)c1=O)c1ccc(F)cc1 | 4 | -0.67
CCCCN1CCN([C@@H](C(=O)NCc2cc(C)[nH]n2)c2ccccc2)C(=O)C1=O | -12 | 1.68
CN(Cc1cscn1)c1c(F)cc(S(N)(=O)=O)cc1Br | -2 | 0.38
CN(C)c1ccc(NC(=O)c2cccnc2Oc2ccc(F)cc2Br)nc1 | -2 | 0.39
O=C(CN1CCN(S(=O)(=O)c2cccs2)CC1)NCCc1ccc(Cl)cc1 | -9 | 1.18
Cc1cc(C(=O)N2CC[C@H](O)[C@@H](O)C2)ccc1F | 4 | -0.68
CCN(Cc1cnc2c(-c3ccccc3)cnn2c1)Cc1noc(C)n1 | -8 | 1.35
COCCOC1CN(C(=O)C(C)(C)N2CCOCC2)C1 | -6 | 0.99

Structure (SMILES) | % Inhibition [%] | Z score
Cc1cc([C@@H]2CCCCN2CCn2cc(Cl)cn2)no1 | -11 | 1.54
Cc1nc(CCS(=O)(=O)C[C@H]2CCCO2)cs1 | 12 | -1.16
CCO[C@H]1CCN(C(=O)c2ccc3c(c2)NC(=O)C3(C)C)C1 | 0 | -0.07
CCN1CCN(C2(C(=O)N3CCC[C@H](OC)C3)Cc3ccccc3C2)CC1 | 6 | -0.88
Cc1ccc(N2C[C@H](Cc3ccccc3)N(C(=O)c3c[nH]c(=O)[nH]3)CC2=O)cc1 | 4 | -0.6
Cc1cccc(CNS(=O)(=O)c2ccc3c(c2)sc(=O)n3CCC(=O)N2CCCCC2)c1 | 13 | -1.47
CS(=O)(=O)N1CC(C(=O)N2CCC[C@H]2C(F)(F)F)C1 | -2 | 0.25
Cc1cc(CN(C)CCCc2c(Cl)cccc2Cl)no1 | 2 | -0.37
Cc1ccc(O[C@H]2CCOC[C@H]2NC(=O)Cc2ccsc2)cn1 | 0 | 0.02
Cc1c(C(=O)O)cccc1S(=O)(=O)NCCN(C)C1CCCC1 | -11 | 1.6
Cc1cc(C(=O)N2CCCC[C@@H]2Cc2ccc(F)cc2)on1 | -14 | 1.78
O=C(c1c[nH]c2ccccc12)C(O)C(c1ccc(Cl)cc1)N1CCNCC1 (stereo not given) | 3 | -0.34
Cn1cc(C2OCCC2CNCc2ccco2)cn1 (stereo not given) | 2 | -0.26
N#Cc1c(F)cccc1NC1(CCO)CCCC1 | 2 | -0.32
Cc1cc2nc(Cc3ccc(F)cc3)n([C@@H](C(=O)NCc3ccncc3)c3ccccc3)c2cc1C | 2 | -0.29
Cc1cccc(-c2nc([C@H]3CCOC3)no2)c1F | -10 | 2.1
Cc1ccc(-n2nc(N3CCN(S(=O)(=O)c4ccc5c(c4)CCCC5)CC3)ccc2=O)cc1 | 13 | -1.46
O=C1CC[C@H](C(=O)NCC2CC23CCc2ccccc23)N1 (stereo not given in full) | -9 | 1.01
Cc1ccsc1[C@H](CNC(=O)c1ccc2[nH]c(=O)[nH]c2c1)N(C)C | 7 | -1.1
